The source of these data is article PMC4918322.

Protein sequences, listed by entry. Tags and fused reporters are not part of them.
UniProt O60264: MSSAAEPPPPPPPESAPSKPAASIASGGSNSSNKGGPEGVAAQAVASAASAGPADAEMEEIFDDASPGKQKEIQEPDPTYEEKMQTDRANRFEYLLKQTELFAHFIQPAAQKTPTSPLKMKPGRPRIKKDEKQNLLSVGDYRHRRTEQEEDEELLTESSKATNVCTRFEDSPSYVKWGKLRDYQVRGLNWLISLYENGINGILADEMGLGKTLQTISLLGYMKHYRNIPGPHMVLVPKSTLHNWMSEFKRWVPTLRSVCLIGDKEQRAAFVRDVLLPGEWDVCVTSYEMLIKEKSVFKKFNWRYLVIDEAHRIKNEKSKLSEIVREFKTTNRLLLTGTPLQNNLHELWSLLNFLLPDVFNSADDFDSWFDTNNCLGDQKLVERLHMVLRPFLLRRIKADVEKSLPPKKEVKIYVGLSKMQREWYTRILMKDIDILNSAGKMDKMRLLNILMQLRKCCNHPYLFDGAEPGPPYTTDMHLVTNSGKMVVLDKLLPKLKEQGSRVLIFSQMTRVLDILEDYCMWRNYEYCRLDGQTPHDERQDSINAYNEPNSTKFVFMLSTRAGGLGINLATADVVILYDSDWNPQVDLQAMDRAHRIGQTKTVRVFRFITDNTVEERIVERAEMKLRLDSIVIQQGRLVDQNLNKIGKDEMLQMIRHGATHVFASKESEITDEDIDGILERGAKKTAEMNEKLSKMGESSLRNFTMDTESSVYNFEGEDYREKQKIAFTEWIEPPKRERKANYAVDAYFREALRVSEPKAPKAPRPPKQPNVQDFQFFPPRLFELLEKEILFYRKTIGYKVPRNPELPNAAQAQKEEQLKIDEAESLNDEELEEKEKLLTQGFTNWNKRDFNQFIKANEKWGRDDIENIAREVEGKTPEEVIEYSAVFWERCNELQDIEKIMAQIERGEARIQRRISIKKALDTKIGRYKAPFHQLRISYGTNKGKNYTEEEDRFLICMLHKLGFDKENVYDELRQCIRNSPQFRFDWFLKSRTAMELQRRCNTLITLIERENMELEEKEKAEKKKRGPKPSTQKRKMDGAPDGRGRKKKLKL

Results are given in words; binding and its absence hold for the method and conditions named. For part of these data: Binding seen in cells or lysates may run through a third protein. Some entries that bind do so weakly or less than the wild type. For part of these data: Sequences can lack the tags named with a protein.

Assay [1] concerns the target T1, recombinant GST-RSF1 of Fig. 1g (human) (UniProt Q96T23).
T1 sequence: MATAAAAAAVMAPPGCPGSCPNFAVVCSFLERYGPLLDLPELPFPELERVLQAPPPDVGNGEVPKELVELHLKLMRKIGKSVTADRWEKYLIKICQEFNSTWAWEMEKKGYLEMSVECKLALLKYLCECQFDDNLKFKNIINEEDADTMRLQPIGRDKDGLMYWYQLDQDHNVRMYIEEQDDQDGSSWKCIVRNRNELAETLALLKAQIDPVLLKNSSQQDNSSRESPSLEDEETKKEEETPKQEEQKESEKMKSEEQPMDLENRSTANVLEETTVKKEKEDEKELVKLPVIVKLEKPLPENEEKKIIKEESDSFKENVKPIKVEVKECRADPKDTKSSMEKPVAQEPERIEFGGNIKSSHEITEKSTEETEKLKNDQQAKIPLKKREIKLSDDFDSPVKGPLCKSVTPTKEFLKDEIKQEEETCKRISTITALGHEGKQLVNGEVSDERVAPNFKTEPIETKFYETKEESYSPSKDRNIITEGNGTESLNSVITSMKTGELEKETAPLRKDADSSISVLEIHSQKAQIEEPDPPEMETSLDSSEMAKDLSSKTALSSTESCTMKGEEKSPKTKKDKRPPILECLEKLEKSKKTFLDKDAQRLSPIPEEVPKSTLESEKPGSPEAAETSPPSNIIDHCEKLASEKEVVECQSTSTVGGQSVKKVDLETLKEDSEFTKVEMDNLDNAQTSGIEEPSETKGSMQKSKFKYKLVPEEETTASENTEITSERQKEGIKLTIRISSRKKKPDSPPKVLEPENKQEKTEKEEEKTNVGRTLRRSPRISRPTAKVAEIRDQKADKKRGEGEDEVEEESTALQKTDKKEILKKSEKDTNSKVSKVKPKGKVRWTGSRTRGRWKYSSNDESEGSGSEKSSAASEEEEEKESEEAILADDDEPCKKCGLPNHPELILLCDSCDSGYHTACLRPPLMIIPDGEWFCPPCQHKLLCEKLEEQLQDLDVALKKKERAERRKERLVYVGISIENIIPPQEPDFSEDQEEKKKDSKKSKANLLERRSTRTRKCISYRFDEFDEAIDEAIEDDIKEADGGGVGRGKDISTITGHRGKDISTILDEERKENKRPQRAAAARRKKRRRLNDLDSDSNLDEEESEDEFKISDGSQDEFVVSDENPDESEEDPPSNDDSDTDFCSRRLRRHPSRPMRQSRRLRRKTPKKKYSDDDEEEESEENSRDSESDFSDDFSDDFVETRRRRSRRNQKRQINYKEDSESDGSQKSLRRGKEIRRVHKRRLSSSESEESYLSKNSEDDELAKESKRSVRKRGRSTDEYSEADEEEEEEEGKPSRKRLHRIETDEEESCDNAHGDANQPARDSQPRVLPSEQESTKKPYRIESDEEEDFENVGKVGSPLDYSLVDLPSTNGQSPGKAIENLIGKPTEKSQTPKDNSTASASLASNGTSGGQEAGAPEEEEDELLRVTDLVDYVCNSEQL
The assay can be described thus: pull-down; recombinant GST-RSF1 proteins immobilised, incubated with Myc-PLK1 or Flag-PLK1 expressing mitotic lysates; immunoblotting; only the target purified.

Assay [2] has as its target T2, recombinant GST-RSF1-C2 (amino acids 982-1441) (human) (UniProt Q96T23).
T2 sequence: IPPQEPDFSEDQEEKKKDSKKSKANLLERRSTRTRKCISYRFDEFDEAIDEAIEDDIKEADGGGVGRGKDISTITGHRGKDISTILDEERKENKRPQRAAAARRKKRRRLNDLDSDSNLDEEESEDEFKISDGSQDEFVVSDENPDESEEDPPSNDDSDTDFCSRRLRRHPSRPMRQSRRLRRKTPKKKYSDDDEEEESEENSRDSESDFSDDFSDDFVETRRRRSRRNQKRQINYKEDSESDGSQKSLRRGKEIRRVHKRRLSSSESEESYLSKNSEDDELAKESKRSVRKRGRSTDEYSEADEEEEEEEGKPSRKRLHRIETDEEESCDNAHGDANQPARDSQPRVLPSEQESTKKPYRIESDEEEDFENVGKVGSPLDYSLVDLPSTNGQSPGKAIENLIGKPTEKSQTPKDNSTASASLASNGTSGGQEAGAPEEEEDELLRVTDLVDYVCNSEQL
The description is as above.

The target in assay [3] is T3, recombinant GST-RSF1-N2 (amino acids 1-871) (human) (UniProt Q96T23).
T3 sequence: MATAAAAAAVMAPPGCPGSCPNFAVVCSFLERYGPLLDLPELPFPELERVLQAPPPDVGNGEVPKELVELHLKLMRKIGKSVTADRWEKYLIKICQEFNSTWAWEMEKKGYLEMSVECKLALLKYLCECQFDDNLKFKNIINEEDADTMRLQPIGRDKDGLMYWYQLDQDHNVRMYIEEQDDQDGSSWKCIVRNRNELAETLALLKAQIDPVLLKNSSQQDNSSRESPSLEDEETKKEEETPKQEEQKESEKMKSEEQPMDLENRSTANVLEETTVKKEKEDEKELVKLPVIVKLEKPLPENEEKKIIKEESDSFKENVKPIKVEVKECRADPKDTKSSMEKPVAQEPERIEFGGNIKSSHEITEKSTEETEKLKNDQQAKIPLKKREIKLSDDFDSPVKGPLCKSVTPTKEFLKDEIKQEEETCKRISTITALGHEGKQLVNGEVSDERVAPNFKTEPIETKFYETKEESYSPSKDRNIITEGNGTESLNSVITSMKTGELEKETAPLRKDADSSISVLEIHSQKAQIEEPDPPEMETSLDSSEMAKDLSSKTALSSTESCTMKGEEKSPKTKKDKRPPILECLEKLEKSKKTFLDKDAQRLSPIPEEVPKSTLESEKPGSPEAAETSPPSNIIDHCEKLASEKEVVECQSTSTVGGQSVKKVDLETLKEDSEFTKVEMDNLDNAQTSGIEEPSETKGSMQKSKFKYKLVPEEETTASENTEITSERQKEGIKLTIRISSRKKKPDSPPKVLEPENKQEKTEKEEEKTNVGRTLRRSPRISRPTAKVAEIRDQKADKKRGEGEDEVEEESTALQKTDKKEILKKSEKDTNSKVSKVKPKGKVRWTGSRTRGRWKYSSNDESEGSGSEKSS
The assay is described as above.

Assay [4] addresses endogenous PLK1 (human (endogenous in HeLa)) (UniProt P53350). As to the kind of experiment: co-IP; RSF1 KO HeLa cell extracts.
Assay [5] deals with PLK1 of the pull-down in Supplementary Fig. 2d (UniProt P53350). The assay can be described thus: pull-down; pull-down of Supplementary Fig. 2d; format not given.
For assay [6], the target named is T4, HA-tagged Aurora B, Q96GD4.
T4 chain: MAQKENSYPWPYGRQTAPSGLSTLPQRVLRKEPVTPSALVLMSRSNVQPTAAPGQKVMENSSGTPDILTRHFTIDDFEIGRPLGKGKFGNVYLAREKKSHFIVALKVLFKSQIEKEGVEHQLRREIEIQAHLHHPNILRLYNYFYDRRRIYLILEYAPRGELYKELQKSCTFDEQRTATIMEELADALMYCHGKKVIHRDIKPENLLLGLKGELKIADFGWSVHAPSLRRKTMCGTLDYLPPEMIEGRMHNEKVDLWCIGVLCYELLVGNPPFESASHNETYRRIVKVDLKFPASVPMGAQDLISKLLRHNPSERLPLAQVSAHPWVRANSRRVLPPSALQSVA
The assay can be described thus: pull-down; in vitro binding assay: Myc-, HA- or Flag-tagged protein immunopurified from mitosis-enriched HEK293T cells and immobilised on beads, incubated with recombinant RSF1-V5 for 2 h at 4 °C; bound RSF1-V5 detected by immunoblotting; both purified. The note with it: remark: other sources report otherwise.

In the case of “Flag-tagged PLK1 wild type (from UniProt P53350 1-603)”, the binding entry in assay [1] is given as “binds”.

For the molecule “Myc-tagged PLK1 (from UniProt P53350 1-603)”, the values for the binding result in assay [2] and in assay [3] were “binds” and “no binding”, respectively.

Turning to “SNF2H in RSF1 KO HeLa cell extracts (from UniProt O60264 1-1052)”, the binding entry in assay [4] is given as “no binding”.

For the molecule “SNF2H of the pull-down in Supplementary Fig. 2d (from UniProt O60264 1-1052)”, the binding result in assay [5] was “no binding”.

B1: recombinant V5-tagged full-length RSF1, Q96T23 1-1441 (protein)
chain: MATAAAAAAVMAPPGCPGSCPNFAVVCSFLERYGPLLDLPELPFPELERVLQAPPPDVGNGEVPKELVELHLKLMRKIGKSVTADRWEKYLIKICQEFNSTWAWEMEKKGYLEMSVECKLALLKYLCECQFDDNLKFKNIINEEDADTMRLQPIGRDKDGLMYWYQLDQDHNVRMYIEEQDDQDGSSWKCIVRNRNELAETLALLKAQIDPVLLKNSSQQDNSSRESPSLEDEETKKEEETPKQEEQKESEKMKSEEQPMDLENRSTANVLEETTVKKEKEDEKELVKLPVIVKLEKPLPENEEKKIIKEESDSFKENVKPIKVEVKECRADPKDTKSSMEKPVAQEPERIEFGGNIKSSHEITEKSTEETEKLKNDQQAKIPLKKREIKLSDDFDSPVKGPLCKSVTPTKEFLKDEIKQEEETCKRISTITALGHEGKQLVNGEVSDERVAPNFKTEPIETKFYETKEESYSPSKDRNIITEGNGTESLNSVITSMKTGELEKETAPLRKDADSSISVLEIHSQKAQIEEPDPPEMETSLDSSEMAKDLSSKTALSSTESCTMKGEEKSPKTKKDKRPPILECLEKLEKSKKTFLDKDAQRLSPIPEEVPKSTLESEKPGSPEAAETSPPSNIIDHCEKLASEKEVVECQSTSTVGGQSVKKVDLETLKEDSEFTKVEMDNLDNAQTSGIEEPSETKGSMQKSKFKYKLVPEEETTASENTEITSERQKEGIKLTIRISSRKKKPDSPPKVLEPENKQEKTEKEEEKTNVGRTLRRSPRISRPTAKVAEIRDQKADKKRGEGEDEVEEESTALQKTDKKEILKKSEKDTNSKVSKVKPKGKVRWTGSRTRGRWKYSSNDESEGSGSEKSSAASEEEEEKESEEAILADDDEPCKKCGLPNHPELILLCDSCDSGYHTACLRPPLMIIPDGEWFCPPCQHKLLCEKLEEQLQDLDVALKKKERAERRKERLVYVGISIENIIPPQEPDFSEDQEEKKKDSKKSKANLLERRSTRTRKCISYRFDEFDEAIDEAIEDDIKEADGGGVGRGKDISTITGHRGKDISTILDEERKENKRPQRAAAARRKKRRRLNDLDSDSNLDEEESEDEFKISDGSQDEFVVSDENPDESEEDPPSNDDSDTDFCSRRLRRHPSRPMRQSRRLRRKTPKKKYSDDDEEEESEENSRDSESDFSDDFSDDFVETRRRRSRRNQKRQINYKEDSESDGSQKSLRRGKEIRRVHKRRLSSSESEESYLSKNSEDDELAKESKRSVRKRGRSTDEYSEADEEEEEEEGKPSRKRLHRIETDEEESCDNAHGDANQPARDSQPRVLPSEQESTKKPYRIESDEEEDFENVGKVGSPLDYSLVDLPSTNGQSPGKAIENLIGKPTEKSQTPKDNSTASASLASNGTSGGQEAGAPEEEEDELLRVTDLVDYVCNSEQL
Take B1: in assay [6], the binding result is “no binding”.
